# Source: article PMC12820563
# This is one part of the list. The list includes weakly bound sequences.
# Target: T1, MBP-FoxP3dN (UniProt Q99JB6)
# T1 sequence: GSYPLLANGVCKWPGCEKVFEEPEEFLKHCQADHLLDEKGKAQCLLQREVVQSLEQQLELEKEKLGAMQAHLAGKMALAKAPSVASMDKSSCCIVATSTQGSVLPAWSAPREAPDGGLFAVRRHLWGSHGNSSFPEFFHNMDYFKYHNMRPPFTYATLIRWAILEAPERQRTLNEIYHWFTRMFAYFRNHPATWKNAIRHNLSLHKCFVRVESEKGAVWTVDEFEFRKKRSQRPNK
# Assay: PD-seq (MBP pull-down with sequencing)
# Conditions: 20 mM Tris-HCl pH 7.5, 100 mM NaCl, 1.5 mM MgCl2, 0.4 uM protein, 0.1 uM dsDNA library, 30 min, room temperature, amylose pull-down; high values mean tight binding; double strand, one strand shown
row,Sequence,binding signal (RPM ratio (pull-down/input))
1,GATGATTGTTCTCCCAGCTGATGAATTTGGCCGTTCGAGTAAACAAATTTTCCTAATCTTTCTGTTCAAGCGCCATCTAC,0.922
2,GATGATTGTTCTCCCAGCTGATGAATTTTAAGAATCGAGTAAACAAATTTTCCTAATCTTTCTGTTCAAGCGCCATCTAC,0.196
3,GATGATTGTTCTCCCAGCTGATGAATTCGCTGATTCGAGTAAACAAATTTTCCTAATCTTTCTGTTCAAGCGCCATCTAC,0.759
4,GATGATTGTTCTCCCAGCTGATGAATTGTATCTATCGAGTAAACAAATTTTCCTAATCTTTCTGTTCAAGCGCCATCTAC,2.07
5,GATGATTGTTCTCCCAGCTGATGAATTTGGCTAATCGAGTAAACAAATTTTCCTAATCTTTCTGTTCAAGCGCCATCTAC,0.364
6,GATGATTGTTCTCCCAGCTGATGAATTGTGCAGCTCGAGTAAACAAATTTTCCTAATCTTTCTGTTCAAGCGCCATCTAC,3.71
7,GATGATTGTTCTCCCAGCTGATGAATTATGGCCTTCGAGTAAACAAATTTTCCTAATCTTTCTGTTCAAGCGCCATCTAC,2.06
8,GATGATTGTTCTCCCAGCTGATGAATTGTCCATTTCGAGTAAACAAATTTTCCTAATCTTTCTGTTCAAGCGCCATCTAC,0.404
9,GATGATTGTTCTCCCAGCTGATGAATTCCGGCCGTCGAGTAAACAAATTTTCCTAATCTTTCTGTTCAAGCGCCATCTAC,0.314
10,GATGATTGTTCTCCCAGCTGATGAATTGAACGCATCGAGTAAACAAATTTTCCTAATCTTTCTGTTCAAGCGCCATCTAC,1.02
11,GATGATTGTTCTCCCAGCTGATGAATTAATCTCCTCGAGTAAACAAATTTTCCTAATCTTTCTGTTCAAGCGCCATCTAC,0.248
12,GATGATTGTTCTCCCAGCTGATGAATTTACTTCCTCGAGTAAACAAATTTTCCTAATCTTTCTGTTCAAGCGCCATCTAC,0.663
13,GATGATTGTTCTCCCAGCTGATGAATTGCTGGTGTCGAGTAAACAAATTTTCCTAATCTTTCTGTTCAAGCGCCATCTAC,0.801
14,GATGATTGTTCTCCCAGCTGATGAATTTTTCCATTCGAGTAAACAAATTTTCCTAATCTTTCTGTTCAAGCGCCATCTAC,0.299
15,GATGATTGTTCTCCCAGCTGATGAATTTATGATCTCGAGTAAACAAATTTTCCTAATCTTTCTGTTCAAGCGCCATCTAC,3.11
16,GATGATTGTTCTCCCAGCTGATGAATTCCTACTATCGAGTAAACAAATTTTCCTAATCTTTCTGTTCAAGCGCCATCTAC,0.361
17,GATGATTGTTCTCCCAGCTGATGAATTTTTGCTTTCGAGTAAACAAATTTTCCTAATCTTTCTGTTCAAGCGCCATCTAC,0.978
18,GATGATTGTTCTCCCAGCTGATGAATTTCGAAAGTCGAGTAAACAAATTTTCCTAATCTTTCTGTTCAAGCGCCATCTAC,0.231
19,GATGATTGTTCTCCCAGCTGATGAATTGGGCAGCTCGAGTAAACAAATTTTCCTAATCTTTCTGTTCAAGCGCCATCTAC,0.963
20,GATGATTGTTCTCCCAGCTGATGAATTAACCAGTTCGAGTAAACAAATTTTCCTAATCTTTCTGTTCAAGCGCCATCTAC,0.215

row,Sequence,binding signal (RPM ratio (pull-down/input))
1,GATGATTGTTCTCCCAGCTGATGAATTATTAAGCTCGAGTAAACAAATTTTCCTAATCTTTCTGTTCAAGCGCCATCTAC,0.301
2,GATGATTGTTCTCCCAGCTGATGAATTAGCGCTTTCGAGTAAACAAATTTTCCTAATCTTTCTGTTCAAGCGCCATCTAC,1.25
3,GATGATTGTTCTCCCAGCTGATGAATTGGTGGCGTCGAGTAAACAAATTTTCCTAATCTTTCTGTTCAAGCGCCATCTAC,1.01
4,GATGATTGTTCTCCCAGCTGATGAATTTATTGTATCGAGTAAACAAATTTTCCTAATCTTTCTGTTCAAGCGCCATCTAC,5.25
5,GATGATTGTTCTCCCAGCTGATGAATTATGTTCATCGAGTAAACAAATTTTCCTAATCTTTCTGTTCAAGCGCCATCTAC,1.09
6,GATGATTGTTCTCCCAGCTGATGAATTGTGCTGTTCGAGTAAACAAATTTTCCTAATCTTTCTGTTCAAGCGCCATCTAC,3.6
7,GATGATTGTTCTCCCAGCTGATGAATTACTCGCATCGAGTAAACAAATTTTCCTAATCTTTCTGTTCAAGCGCCATCTAC,0.838
8,GATGATTGTTCTCCCAGCTGATGAATTGTTGGATTCGAGTAAACAAATTTTCCTAATCTTTCTGTTCAAGCGCCATCTAC,0.772
9,GATGATTGTTCTCCCAGCTGATGAATTCCGAACGTCGAGTAAACAAATTTTCCTAATCTTTCTGTTCAAGCGCCATCTAC,0.301
10,GATGATTGTTCTCCCAGCTGATGAATTAGGTTTCTCGAGTAAACAAATTTTCCTAATCTTTCTGTTCAAGCGCCATCTAC,1.24
11,GATGATTGTTCTCCCAGCTGATGAATTAAAATACTCGAGTAAACAAATTTTCCTAATCTTTCTGTTCAAGCGCCATCTAC,0.458
12,GATGATTGTTCTCCCAGCTGATGAATTCTCCCGGTCGAGTAAACAAATTTTCCTAATCTTTCTGTTCAAGCGCCATCTAC,0.148
13,GATGATTGTTCTCCCAGCTGATGAATTTCCATCATCGAGTAAACAAATTTTCCTAATCTTTCTGTTCAAGCGCCATCTAC,0.45
14,GATGATTGTTCTCCCAGCTGATGAATTGATTCTGTCGAGTAAACAAATTTTCCTAATCTTTCTGTTCAAGCGCCATCTAC,0.335
15,GATGATTGTTCTCCCAGCTGATGAATTCGTACTATCGAGTAAACAAATTTTCCTAATCTTTCTGTTCAAGCGCCATCTAC,0.576
16,GATGATTGTTCTCCCAGCTGATGAATTTCAACAATCGAGTAAACAAATTTTCCTAATCTTTCTGTTCAAGCGCCATCTAC,0.468
17,GATGATTGTTCTCCCAGCTGATGAATTTGTCGATTCGAGTAAACAAATTTTCCTAATCTTTCTGTTCAAGCGCCATCTAC,1.97
18,GATGATTGTTCTCCCAGCTGATGAATTGGCCGGTTCGAGTAAACAAATTTTCCTAATCTTTCTGTTCAAGCGCCATCTAC,0.266
19,GATGATTGTTCTCCCAGCTGATGAATTATTCGGATCGAGTAAACAAATTTTCCTAATCTTTCTGTTCAAGCGCCATCTAC,0.255
20,GATGATTGTTCTCCCAGCTGATGAATTATGAGTGTCGAGTAAACAAATTTTCCTAATCTTTCTGTTCAAGCGCCATCTAC,1.89
